Data published in patent US20210054071A1 (NANJING LEGEND BIOTECH, published 2021).

Columns and labels:
[1] = target: T1, mouse TIGIT-His protein (Acrobiosystems) (mouse, UniProt P86176 29-148, limits assumed); experiment: SPR as in Example 2
T1 construct: bought
T1 sequence (looked up): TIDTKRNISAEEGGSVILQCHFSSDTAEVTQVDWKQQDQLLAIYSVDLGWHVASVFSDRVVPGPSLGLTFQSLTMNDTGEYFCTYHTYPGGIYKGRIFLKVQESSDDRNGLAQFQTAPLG

[2] = target: T2, murine TIGIT expressed on CHO-K1 cells (murine, UniProt P86176 29-249); experiment: FACS, CHO-K1 cells expressing murine TIGIT
T2 construct: whole, on cells; also called CHO/mouse TIGIT; mouse TIGIT expressed on CHO cells
T2 sequence (looked up): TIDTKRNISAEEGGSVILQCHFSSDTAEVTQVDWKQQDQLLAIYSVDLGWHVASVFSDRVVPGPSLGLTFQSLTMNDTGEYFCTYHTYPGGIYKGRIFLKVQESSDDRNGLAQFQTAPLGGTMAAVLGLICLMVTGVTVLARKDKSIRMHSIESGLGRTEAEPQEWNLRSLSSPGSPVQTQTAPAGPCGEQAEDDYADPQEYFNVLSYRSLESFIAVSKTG

[3] = target: T3, cynomolgus TIGIT expressed on CHO-K1 cells (cynomolgus, UniProt A0A7N9I9V4 89-312); experiment: FACS, CHO-K1 cells expressing cynomolgus TIGIT
T3 construct: whole, on cells

[4] = target: T3, cynomolgus TIGIT expressed on CHO-K1 …; experiment: FACS, CHO-K1 cells expressing cynomolgus TIGIT; remark: listed apart in the source
[5] = target: T4, cynomolgus TIGIT-His protein (Acrobiosystems) (cynomolgus, UniProt A0A7N9I9V4 89-209); experiment: SPR (BIAcore T200), target amine-coupled to CM5 chip
T4 construct: bought

[6] = target: T1, mouse TIGIT-His protein (Acrobiosystems); experiment: as above
[7] = target: T4, cynomolgus TIGIT-His protein …; experiment: as above; remark: listed apart in the source
[8] = target: T1, mouse TIGIT-His protein (Acrobiosystems); experiment: as above; remark: listed apart in the source
[9] = target: T5, human TIGIT expressed on CHO-K1 cells (human, UniProt Q495A1 22-244); experiment: FACS, CHO-K1 cells expressing human TIGIT
T5 construct: also called CHO/human TIGIT cells; CHO-TIGIT cells
T5 sequence: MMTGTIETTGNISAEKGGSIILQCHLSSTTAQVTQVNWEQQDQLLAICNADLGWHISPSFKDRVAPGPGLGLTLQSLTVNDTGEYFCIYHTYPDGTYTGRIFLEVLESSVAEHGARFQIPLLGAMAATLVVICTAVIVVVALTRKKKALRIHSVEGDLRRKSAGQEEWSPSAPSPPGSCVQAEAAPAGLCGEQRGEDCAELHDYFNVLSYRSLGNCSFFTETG

B1: AS19584 sdAb-Fc (IgG1) fusion protein (Fc fusion)
chain: QVQLAESGGGSVQAGGSLRLSCAASGYKYGVYSMGWFRLAPGKEREGVAAICSGGRTTYSDSVKGRFTISKDSANQILYLQMNSLKPEDTAMYYCAARPLWTGDCDLSSSWYKTWGQGTQVTVSS[human IgG1 Fc not written out]
notes: unhumanized camel anti-TIGIT sdAb fused to human IgG1 Fc, dimeric form; also called AS19584-Fc; AS19584-Fc (IgG1)
- Kd [1]: 0.57 nM
- EC50 [2]: 0.806 nM
- EC50 [3]: 3.85 nM
- EC50 [4]: 0.664 nM
- Kd [5]: 51 nM
- koff [5]: 0.014 s⁻¹
- kon [5]: 270000 M⁻¹ s⁻¹
- Kd [6]: 0.5 nM
- koff [6]: 0.00072 s⁻¹
- kon [6]: 1.4e+06 M⁻¹ s⁻¹
- Kd [7]: 38 nM
- koff [7]: 0.017 s⁻¹
- kon [7]: 460000 M⁻¹ s⁻¹
- Kd [8]: 0.55 nM
- kon [8]: 880000 M⁻¹ s⁻¹

B2: AS19584 sdAb-Fc (inert IgG1) fusion protein (Fc fusion)
chain: QVQLAESGGGSVQAGGSLRLSCAASGYKYGVYSMGWFRLAPGKEREGVAAICSGGRTTYSDSVKGRFTISKDSANQILYLQMNSLKPEDTAMYYCAARPLWTGDCDLSSSWYKTWGQGTQVTVSS[human IgG1 Fc with changes not written out]
notes: effectorless human IgG1 Fc, dimeric form; also called AS19584-Fc (inert IgG1); AS19584 (inert IgG1)
- Kd [1]: 0.71 nM

B3: AS19852 sdAb-Fc (IgG1) fusion protein (Fc fusion)
chain: QVQLAESGGGSVQTGGSLRLSCAASGNTGSRRYVAWFRQAPGKEREGVARLITDSGSTYYADSVKGRFIISQDNAKNTVYLQMNTLKPEDTAMYYCAEELAPARSGGIWFGGRYFSYWGQGTQVTVSS[human IgG1 Fc not written out]
notes: dimeric form, human IgG1 Fc; also called AS19852-Fc
- EC50 [9]: 0.383 nM

B4: AS19858 sdAb-Fc (IgG1) fusion protein (Fc fusion)
chain: QIQLVESGGGSVQAGGSLRLSCATSGYTYRQKCMGWFRQAPGKEREGVAAIYTSVGGSRTYVADSAKGRFTVSQDNAKNTVYLQMNSLKPEDTAMYYCAAKSPYDGACSYEADFTYWGQGTQVTVSS[human IgG1 Fc not written out]
notes: dimeric form, human IgG1 Fc; also called AS19858-Fc
- EC50 [9]: 0.223 nM

B5: AS19887 sdAb-Fc (IgG1) fusion protein (Fc fusion)
chain: QVQLAESGGGSVQAGGSLRLSCAASGVTSDSYHMGWFRQAPGKEREGVAVIKTGDASTYYTDSVKGRFTISQDNAKNTLYLQMNSLKPEDTAMYYCAARRGWVPAPLSQYNYNYWGQGTQVTVSS[human IgG1 Fc not written out]
notes: dimeric form, human IgG1 Fc; also called AS19887-Fc
- EC50 [9]: 0.497 nM

B6: AS19888 sdAb-Fc (IgG1) fusion protein (Fc fusion)
chain: QVQLAESGGGSVQTGGSLRLSCEASGVAASGYCMAWFRQAPGKERERVAAISSNDLVAYADSVKGRFTISKDNAKTTLYLQMNNLKPEDTAMYYCAADGGYGGYCGRLRPGTGYWGQGTQVTVSS[human IgG1 Fc not written out]
notes: dimeric form, human IgG1 Fc; also called AS19888-Fc
- EC50 [9]: 1 nM

Read-outs that look alike come from different tables or passages of the source.
